In all, about 48,000 compounds went through this assay and about 120 (0.25%) were called active. Not shown: some 4% with an inconclusive outcome. Calls come from the whole dose curve; as a rule, active = well fitted activation curve with a large enough effect; inconclusive = small, poorly fitted or top-dose-only effect, or another doubt; inactive = no such curve, though single readings can be large or run the other way. Only a part is listed here, and it is no random draw. The source gives no active or inactive call for entries shown without one.

From PubChem BioAssay AID1508624 (National Center for Advancing Translational Sciences (NCATS), 2021) come the findings set out here.
Potency is the fitted concentration of half-maximal effect.

This experiment in a line: Primary qHTS for Identification of Small Molecule Activators of Huntingtin-Antisense Promoter Activity. Note: nearly all actives have a fitted effect of over 55% in size. The following applies: HEK293 HTT-AS promoter firefly luciferase reporter, 24 h; activity change, positive = activation: at 57.5 µM (top of the series), percent change from vehicle, -100% = no light. An excerpt: Assay Provider: Russell L. Margolis M.D.
Department Neurology, Johns Hopkins University School of Medicine, Baltimore, MD
Huntington's Disease (HD) is a neurodegenerative disorder caused by a CAG repeat expansion in exon 1 of huntingtin (HTT). While there are currently no disease-modifying treatments for HD, recent efforts have focused on development of nucleotide-based therapeutics to lower HTT expression. As an alternative to siRNA or oligonucleotide methods, we hypothesized that suppression of HTT expression might be accomplished by small molecules that either (1) directly decrease HTT expression by suppressing HTT promoter activity or (2) indirectly decrease HTT expression by increasing the promoter activity of HTT-AS, the gene antisense to HTT that appears to inhibit expression of HTT.
We developed and employed a high throughput screen for modifiers of HTT and HTT-AS promoter activity using luminescent reporter HEK293 cells; of the 52,041 compounds tested, we identified 898 replicable hits. We used a rigorous stepwise approach to assess compound toxicity and the capacity of the compounds to specifically lower huntingtin protein in 5 different cell lines, including HEK293 cells, HD lymphoblastoid cells, mouse primary neurons, HD iPSCs differentiated into cortical-like neurons, and HD hESCs. We found no compounds which were able to lower huntingtin without lowering cell viability in all assays, though the potential efficacy of a few compounds at non-toxic doses could not be excluded.
SEQUENCE No. (1, 2, 3, etc.); […] (e.g., Cells, Incubation, Reagent, etc.); VALUE and DESCRIPTION.
1; Reagent; 4 uL; 2,500 Hek293 luciferase reporter cells per wells
3; Compound; 23 nL; Control inhibitor / compound library
5; Reagent; 2.5 uL; Firefly Luc reagent; Dual-Glo Luciferase Reporter Assay System (Promega)
6; Time; 10 min; room temperature incubation
7; Detection; Luminescence; FLuc
NOTES (numbers refer to sequence above)
1; High-throughput screening, measuring luminescence from a Hek293 luciferase reporter, was performed in 1,536 well white-walled tissue-culture treated plates. 2,500 cells were plated in 4 µL of Opti-MEM per well using a Multidrop Combi Reagent Dispenser (ThermoFisher).
2; Assay plates were cultured for 24 hours.
3; Control inhibitor (PTC124; final concentration of 50 uM) and compound library (at final concentrations of 460 nM - 57.5 uM) were added to the assay plate using the Kalypsis Pintool Robotic System equipped with 1536 pinheads.
4; Cells were then incubated for 24 hours at 37 degrees C prior to luminescence measurements.
5; In all cases, luminescence was measured using the Dual-Glo Luciferase Reporter Assay System (Promega) following the manufacturer's instructions.
6; Room temperature incubation.
7; Luminescence signal was obtained using the PerkinElmer ViewLux plate reader. Results were normalized to vehicle control (0% activity) and zero RLU (-100% activity).
On the technique in general: In qHTS, concentration-response curves come from the screen itself.
With `CC(C)C[C@H](NC(=O)CNC(=O)c1cc(Cl)ccc1Cl)B1OC(=O)CC(CC(=O)O)(C(=O)O)O1` (stereo partly drawn), the “activity change, positive = activation” value was inactive: -46.8%. `COC(=O)c1cc2oc3ccccc3c2n1Cc1nc(-c2cccc(C)c2)oc1C`: the activity change, positive = activation is 13.4%. With `CCOc1ccc(S(=O)(=O)Nc2cc3c(C(=O)OC)c(COC)oc3c3ccccc23)cc1`, the activity change, positive = activation was -28.5%.

For `COc1ccc(S(=O)(=O)N(CC(=O)Nc2cc(Cl)ccc2C)Cc2ccccc2)cc1OC`, the activity change, positive = activation is -34.8%. For `COc1ccc(NCc2cc3cc4c(cc3n(CC(=O)Nc3ccc(C)c(C)c3)c2=O)OCO4)cc1`, the “activity change, positive = activation” value is inactive: 15.6%. `COc1ccc(N2C(=O)Cc3cc(OC)c(OC)cc3C2c2ccc(F)cc2)cc1` (stereo not drawn): the activity change, positive = activation was -17.3%. The same measure, in the same setting: next, `COc1ccc(OC)c(CNC(=O)C2CCCCN2S(=O)(=O)c2ccc(F)cc2)c1` (stereo not drawn): -17.6%; `COc1ccc(CCN2C(=O)CN(C3CCCCCC3)C(=O)C2c2ccc(Cl)cc2)cc1OC` (stereo not drawn): -23%; `COc1cccc(CNC(=O)c2ccc3nc(CCc4ccccc4)oc3c2)c1OC`: inactive: 26.7%. For the compound `CCC(=O)Nc1ccc(-c2nc3ncccc3o2)cc1C`, the Potency is active: 11.2 µM. In the case of `CC(C)c1ccc2oc(-c3ccc(Cl)c(NC(=O)Cc4ccccc4)c3)nc2c1`, the activity change, positive = activation is -69.9%. Same read-out and setting: next, `Cc1cccc(-c2nc(CSCC(=O)N3CCN(c4ccccc4)CC3)c(C)o2)c1`: inactive: -30%; `O=C(Nc1cc(Cl)cc2c1[nH]c1cnccc12)c1cccnc1`: inactive: -41.1%. Same read-out and setting: next, `COc1ccc(CCNC(=O)c2cnc3sc(N4CCC(C)CC4)nn3c2=O)cc1OC`: 5.23%.

As to `Cc1cc(C)cc(NC(=O)C(=O)NC(C)c2ccccc2)c1` (stereo not drawn), the activity change, positive = activation stood at 0.878%. As to `COc1ccc(-c2cc(C(F)(F)F)nc(SCCC(=O)Nc3ccc(O)cc3)n2)cc1`, the “activity change, positive = activation” value is inactive: -37.7%. Regarding `COc1ccc(CCNC(=O)c2cnc3sc(N4CCOCC4)nn3c2=O)cc1OC`, the activity change, positive = activation was determined as 4.16%.

For the compound `O=C(NCCc1ccccc1)c1cc(-c2cccc(Cl)c2)on1`, the activity change, positive = activation came to 12.5%. `CC1CCN(c2ccc(-c3cccc(NS(=O)(=O)c4cccs4)c3)nn2)CC1`: the activity change, positive = activation amounted to 44.8%. Same read-out and setting: the result for `CCCCOc1ccc(CNC(=O)c2cnc3sc(N4CCC(C)CC4)nn3c2=O)cc1` reads -2.51%; that for `COc1ccccc1CNC(=O)CCS(=O)(=O)c1ccc2c(c1)CC(C)N2C(=O)C1CC1` (stereo not drawn), -14.9%. `COc1ccccc1CNC(=O)CCc1c(C)nn(-c2ccc(N3CCCC3)nn2)c1C`: the activity change, positive = activation was -0.345%. The same measure, in the same setting: the result for `Cc1ccc(CNC(=O)CCc2c(C)c3cc4c(C)coc4cc3oc2=O)cc1` reads 5.39%; that for `COc1ccc(C2(N3CCN(c4cc(C)ccc4C)CC3)C(=O)c3ccccc3C2=O)cc1`, -13.1%. As to `Cc1ccc(C)c(N2CCN(C(=O)CCc3c(C)nn(-c4ccc(N5CCCC5)nn4)c3C)CC2)c1`, the activity change, positive = activation is -30.6%.

`COc1ccccc1C(=O)Nc1ccccc1C(=O)OCc1cc(=O)n2c(C)csc2n1`: the “activity change, positive = activation” value was inactive: -17.3%.

With `COC(=O)c1ccc(NC(=O)CC2C(=O)N(c3cccc(C)c3)C(=O)N2Cc2ccco2)cc1` (stereo not drawn), the activity change, positive = activation is -5.13%. As for `COc1ccc(NC(=O)CCn2nc(-c3ccc(Cl)cc3)c3ccccc3c2=O)cc1`, the activity change, positive = activation is -16.9%.

Consider `Cc1ccccc1Nc1c(-c2ccc(N3CCOCC3)cc2)nc2cccc(C)n12`, for which the “activity change, positive = activation” value was inactive: 27.2%. On to `O=C(CCS(=O)(=O)c1ccc(Br)s1)Nc1cc(C(F)(F)F)cc(C(F)(F)F)c1`, for which the “activity change, positive = activation” value was inactive: -48%. The same measure, in the same setting: the result for `O=C(NCc1ccccc1)NC1COc2ccccc2C1` (stereo not drawn) reads inactive: 14.4%. With `COc1cc(C2CC(=O)Nc3ccc4ccccc4c32)ccc1OC(=O)C(C)C` (stereo not drawn), the activity change, positive = activation is -22.2%. With `N#Cc1nc(/C=C/c2ccc(F)cc2)oc1N1CCCCCC1`, the “activity change, positive = activation” value is inactive: -20.1%. Consider `O[C@@H](COc1cccc2ncccc12)CN1CCN(C2c3ccccc3[C@@H]3[C@H](c4ccccc42)C3(F)F)CC1` (stereo partly drawn), for which the “activity change, positive = activation” value is inactive: -34.1%. The same measure, in the same setting: next, `CCCc1cc(=O)[nH]c(Nc2cc(Cl)cc(Cl)c2)n1`: -56.2%; `Cc1nn(Cc2ccc(F)cc2)c(C)c1NC(=O)c1noc2c1CCc1ccccc1-2`: -49%.

Take `O=C(c1cc(-c2cccc(Cl)c2)on1)N1CCCCC1`: the activity change, positive = activation is -9.37%.

Consider `Cc1ccc(Cl)cc1N1CCN(C(=O)C2CCN(S(=O)(=O)Cc3ccccc3)CC2)CC1`, for which the activity change, positive = activation was -16%. Consider `COC(=O)c1ccccc1NC(=O)c1ccc(-c2nc(COc3ccccc3)c(C)o2)cc1`, for which the activity change, positive = activation is -7.11%. For the compound `Cc1ccc(Cn2c(CCCNC(=O)c3ccco3)nc3ccccc32)cc1`, the activity change, positive = activation was -6.89%. Consider `CCc1nn(-c2ccccc2)c2nc(-c3ccc(O)cc3)c3cc(OC)c(OC)cc3c12`, for which the activity change, positive = activation is 1.38%.

`O=C(NCc1ccc(F)cc1)C1CCCCN1S(=O)(=O)c1ccc(F)cc1` (stereo not drawn): the activity change, positive = activation was -12.2%. In the case of `CCOC(=O)c1cc(C)n(CC2CCC(C(=O)Nc3ccc(C)cc3)CC2)c1C` (stereo not drawn), the activity change, positive = activation was -16.6%. On to `CCCN1CCN(CCCNC(=O)c2cnn(-c3ccc(C)cc3)c2-n2cccc2)CC1`, for which the activity change, positive = activation was -0.463%. For `CCc1ccccc1NC(=O)CCCN1C(=O)COc2ccc(C)cc21`, the “activity change, positive = activation” value is inactive: -13.8%. Same read-out and setting: next, `CCOc1ccc(C(C)C)cc1S(=O)(=O)Nc1cccc(-c2ccc(N3CCOCC3)nn2)c1`: -6.88%.

As for `CCCCN(CC)c1ncnc2c1sc1nc(N3CCOCC3)c3c(c12)CCCC3`, the activity change, positive = activation was found to be 1.65%. `CC(C)(C)c1ccc(OCCSc2nc(-c3cccs3)nc3cc(=O)[nH]n23)cc1`: the activity change, positive = activation is -8.8%.
